Assay results published in the supplement of paper PMC8728848.
The other results are listed elsewhere or left out.

Tests used:
Assay in all cases: glycan array binding signal (z-score within array); higher = stronger binding
Details in all cases: glycan notation: IUPAC condensed, linker removed
[1] = molecular target: Gal(b1-3)[GlcNAc(b1-6)]GalNAc
Procedure, shortened: (§1)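 Negative Z-scores can be read as non-binding. The Z-score is calculated within each array and then averaged across arrays of one protein sequence at different concentrations or buffers and across linkers. Arrays, 3228 in all, were curated from the Consortium for Functional Glycomics database and kept only where the protein sequence was available.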

[2] = molecular target: Gal(b1-3)[GlcNAc(b1-6)]GlcNAc
Procedure, shortened: as §1

[3] = molecular target: Gal(b1-3)[Neu5Ac(a2-6)]GalNAc
Procedure, shortened: as §1

[4] = molecular target: Gal(b1-3)[Neu5Ac(a2-6)]GlcNAc
Procedure, shortened: as §1

[5] = molecular target: Gal(b1-3)[Neu5Ac(a2-6)]GlcNAc(a1-4)Gal(b1-4)Glc
Procedure, shortened: as §1

[6] = molecular target: Gal(b1-3)[Neu5Ac(a2-6)]GlcNAc(b1-6)Gal(b1-4)Glc
Procedure, shortened: as §1

[7] = molecular target: Gal(b1-3)[Neu5Ac(b2-6)]GalNAc
Procedure, shortened: as §1

[8] = molecular target: Gal(b1-3)[Neu5Ac(b2-6)]GlcNAc
Procedure, shortened: as §1

[9] = molecular target: Gal(b1-4)GalNAc(a1-3)[Fuc(a1-2)]Gal(b1-4)GlcNAc
Procedure, shortened: as §1

[10] = molecular target: Gal(b1-4)GalNAc(b1-3)[Fuc(a1-2)]Gal(b1-4)GlcNAc
Procedure, shortened: as §1

Gal(b1-4)Glc = molecular target: Gal(b1-4)Glc
Procedure, shortened: as §1

Gal(b1-4)Glc6S = molecular target: Gal(b1-4)Glc6S
Procedure, shortened: as §1

Gal(b1-4)GlcNAc = molecular target: Gal(b1-4)GlcNAc
Procedure, shortened: as §1

[11] = molecular target: Gal(b1-4)GlcNAc(a1-6)Gal(b1-4)GlcNAc
Procedure, shortened: as §1

[12] = molecular target: Gal(b1-4)GlcNAc(b1-2)Man(a1-3)[Gal(b1-4)GlcNAc(b1-2)Man(a1-6)]Man(b1-4)GlcNAc(b1-4)GlcNAc
Procedure, shortened: as §1

[13] = molecular target: Gal(b1-4)GlcNAc(b1-3)Gal(b1-3)GlcNAc
Procedure, shortened: as §1

[14] = molecular target: Gal(b1-4)GlcNAc(b1-3)Gal(b1-4)Glc
Procedure, shortened: as §1

[15] = molecular target: Gal(b1-4)GlcNAc(b1-3)Gal(b1-4)GlcNAc
Procedure, shortened: as §1

[16] = molecular target: Gal(b1-4)GlcNAc(b1-3)Gal(b1-4)GlcNAc(b1-3)Gal(b1-4)GlcNAc
Procedure, shortened: as §1

[17] = molecular target: Gal(b1-4)GlcNAc(b1-3)Gal(b1-4)[Fuc(a1-3)]GlcNAc(b1-3)Gal(b1-4)[Fuc(a1-3)]GlcNAc
Procedure, shortened: as §1

[18] = molecular target: Gal(b1-4)GlcNAc(b1-3)GalNAc
Procedure, shortened: as §1

[19] = molecular target: Gal(b1-4)GlcNAc(b1-3)[Gal(b1-4)GlcNAc(b1-6)]Gal(b1-4)GlcNAc
Procedure, shortened: as §1

[20] = molecular target: Gal(b1-4)GlcNAc(b1-3)[Gal(b1-4)GlcNAc(b1-6)]GalNAc
Procedure, shortened: as §1

[21] = molecular target: Gal(b1-4)GlcNAc(b1-3)[GlcNAc(b1-6)]Gal(b1-4)GlcNAc
Procedure, shortened: as §1

[22] = molecular target: Gal(b1-4)GlcNAc(b1-6)Gal(b1-4)GlcNAc
Procedure, shortened: as §1

[23] = molecular target: Gal(b1-4)GlcNAc(b1-6)Gal(b1-4)GlcNAc(b1-6)GalNAc
Procedure, shortened: as §1

[24] = molecular target: Gal(b1-4)GlcNAc(b1-6)GalNAc
Procedure, shortened: as §1

[25] = molecular target: Gal(b1-4)GlcNAc(b1-6)[Gal(b1-3)]GalNAc
Procedure, shortened: as §1

[26] = molecular target: Gal(b1-4)GlcNAc(b1-6)[Gal(b1-3)]GlcNAc
Procedure, shortened: as §1

Gal3S(b1-3)GalNAc = molecular target: Gal3S(b1-3)GalNAc
Procedure, shortened: as §1

Gal3S(b1-3)GlcNAc = molecular target: Gal3S(b1-3)GlcNAc
Procedure, shortened: as §1

[27] = molecular target: Gal3S(b1-3)[Fuc(a1-4)]GlcNAc
Procedure, shortened: as §1

Gal3S(b1-4)Glc = molecular target: Gal3S(b1-4)Glc
Procedure, shortened: as §1

Gal3S(b1-4)Glc6S = molecular target: Gal3S(b1-4)Glc6S
Procedure, shortened: as §1

Gal3S(b1-4)GlcNAc = molecular target: Gal3S(b1-4)GlcNAc
Procedure, shortened: as §1

Gal3S(b1-4)GlcNAc6S = molecular target: Gal3S(b1-4)GlcNAc6S
Procedure, shortened: as §1

[28] = molecular target: Gal3S(b1-4)[Fuc(a1-3)]Glc
Procedure, shortened: as §1

Gal3S4S(b1-4)GlcNAc = molecular target: Gal3S4S(b1-4)GlcNAc
Procedure, shortened: as §1

Gal3S6S(b1-4)GlcNAc = molecular target: Gal3S6S(b1-4)GlcNAc
Procedure, shortened: as §1

Gal3S6S(b1-4)GlcNAc6S = molecular target: Gal3S6S(b1-4)GlcNAc6S
Procedure, shortened: as §1

Gal4S(b1-4)GlcNAc = molecular target: Gal4S(b1-4)GlcNAc
Procedure, shortened: as §1

Gal4S6S(b1-4)GlcNAc = molecular target: Gal4S6S(b1-4)GlcNAc
Procedure, shortened: as §1

Gal6S(b1-4)Glc = molecular target: Gal6S(b1-4)Glc
Procedure, shortened: as §1

Gal6S(b1-4)Glc6S = molecular target: Gal6S(b1-4)Glc6S
Procedure, shortened: as §1

B1: NcCVNHO (Neurospora crassa), Q7S6U4 (protein)
chain: MSFHVTAEDARIEVRDNRTILFARLRREDGEWNDASYELDQIIGNNDGHFQWGGQNFTETAEDIRFHPKEGAAEQPILRARLRDCNGEFHDRDVNLTEIVENVNGEFQAKF
With B1 the “glycan array binding signal (z-score)” value [1] was -0.196, the “glycan array binding signal (z-score)” value [2] was -0.122 and the “glycan array binding signal (z-score)” value [3] was -0.236. For the same binder, the “glycan array binding signal (z-score)” value [4] was -0.167, the “glycan array binding signal (z-score)” value [5] was -0.172 and the “glycan array binding signal (z-score)” value [6] was 4.11. For the same binder, the “glycan array binding signal (z-score)” value [7] was -0.264, the “glycan array binding signal (z-score)” value [8] was -0.106 and the “glycan array binding signal (z-score)” value [9] was -0.227. The “glycan array binding signal (z-score)” value [10] was -0.191, the “glycan array binding signal (z-score)” value (Gal(b1-4)Glc) was -0.208 and the “glycan array binding signal (z-score)” value (Gal(b1-4)Glc6S) was -0.213. For the same binder, the “glycan array binding signal (z-score)” value (Gal(b1-4)GlcNAc) was -0.209, the “glycan array binding signal (z-score)” value [11] was -0.189 and the “glycan array binding signal (z-score)” value [12] was -0.192. For the same binder, the “glycan array binding signal (z-score)” value [13] was -0.157, the “glycan array binding signal (z-score)” value [14] was 1.89 and the “glycan array binding signal (z-score)” value [15] was -0.233. The “glycan array binding signal (z-score)” value [16] was -0.244, the “glycan array binding signal (z-score)” value [17] was -0.185 and the “glycan array binding signal (z-score)” value [18] was -0.216. The “glycan array binding signal (z-score)” value [19] was -0.185, the “glycan array binding signal (z-score)” value [20] was -0.246 and the “glycan array binding signal (z-score)” value [21] was -0.193. The “glycan array binding signal (z-score)” value [22] was -0.195, the “glycan array binding signal (z-score)” value [23] was -0.156 and the “glycan array binding signal (z-score)” value [24] was -0.228. The “glycan array binding signal (z-score)” value [25] was -0.196, the “glycan array binding signal (z-score)” value [26] was -0.141 and the “glycan array binding signal (z-score)” value (Gal3S(b1-3)GalNAc) was -0.239. The “glycan array binding signal (z-score)” value (Gal3S(b1-3)GlcNAc) was -0.229, the “glycan array binding signal (z-score)” value [27] was -0.201 and the “glycan array binding signal (z-score)” value (Gal3S(b1-4)Glc) was -0.183. The “glycan array binding signal (z-score)” value (Gal3S(b1-4)Glc6S) was -0.12, the “glycan array binding signal (z-score)” value (Gal3S(b1-4)GlcNAc) was -0.216 and the “glycan array binding signal (z-score)” value (Gal3S(b1-4)GlcNAc6S) was -0.214. The “glycan array binding signal (z-score)” value [28] was -0.193, the “glycan array binding signal (z-score)” value (Gal3S4S(b1-4)GlcNAc) was -0.178 and the “glycan array binding signal (z-score)” value (Gal3S6S(b1-4)GlcNAc) was -0.23. The “glycan array binding signal (z-score)” value (Gal3S6S(b1-4)GlcNAc6S) was -0.227, the “glycan array binding signal (z-score)” value (Gal4S(b1-4)GlcNAc) was -0.182 and the “glycan array binding signal (z-score)” value (Gal4S6S(b1-4)GlcNAc) was -0.207. The “glycan array binding signal (z-score)” value (Gal6S(b1-4)Glc) was -0.235 and the “glycan array binding signal (z-score)” value (Gal6S(b1-4)Glc6S) was -0.209.
